Measurements: the supplement of paper PMC8728848
This is one part of the list.

Columns and labels:
Assay in all cases: glycan array binding signal (z-score within array); higher = stronger binding
Settings in all cases: glycan notation: IUPAC condensed, linker removed; mutation: D325N
Fuc(a1-2)Gal = target: Fuc(a1-2)Gal
Outline: (§1)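 Glycan array data were curated from 3228 arrays in the Consortium for Functional Glycomics database and kept only where the protein sequence was available. Glycan names were converted to IUPAC-condensed notation, and columns mapping to the same glycan were averaged. The binding signal is a within-array Z-score, averaged across arrays of the same protein sequence at different concentrations or buffers and across linkers. Negative Z-scores can be read as non-binding.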

Fuc(a1-2)Gal(b1-3)GalNAc = target: Fuc(a1-2)Gal(b1-3)GalNAc
Outline: as §1

[1] = target: Fuc(a1-2)Gal(b1-3)GalNAc(b1-3)Gal
Outline: as §1

[2] = target: Fuc(a1-2)Gal(b1-3)GalNAc(b1-3)Gal(a1-4)Gal(b1-4)Glc
Outline: as §1

[3] = target: Fuc(a1-2)Gal(b1-3)GalNAc(b1-4)[Neu5Ac(a2-3)]Gal(b1-4)Glc
Outline: as §1

Fuc(a1-2)Gal(b1-3)GlcNAc = target: Fuc(a1-2)Gal(b1-3)GlcNAc
Outline: as §1

[4] = target: Fuc(a1-2)Gal(b1-3)GlcNAc(b1-3)Gal(b1-4)Glc
Outline: as §1

[5] = target: Fuc(a1-2)Gal(b1-3)[Fuc(a1-4)]GlcNAc
Outline: as §1

Fuc(a1-2)Gal(b1-4)Glc = target: Fuc(a1-2)Gal(b1-4)Glc
Outline: as §1

Fuc(a1-2)Gal(b1-4)Glc6S = target: Fuc(a1-2)Gal(b1-4)Glc6S
Outline: as §1

Fuc(a1-2)Gal(b1-4)GlcNAc = target: Fuc(a1-2)Gal(b1-4)GlcNAc
Outline: as §1

[6] = target: Fuc(a1-2)Gal(b1-4)GlcNAc(b1-3)Gal(b1-4)GlcNAc
Outline: as §1

[7] = target: Fuc(a1-2)Gal(b1-4)GlcNAc(b1-3)Gal(b1-4)GlcNAc(b1-3)Gal(b1-4)GlcNAc
Outline: as §1

[8] = target: Fuc(a1-2)Gal(b1-4)GlcNAc6S
Outline: as §1

[9] = target: Fuc(a1-2)Gal(b1-4)[Fuc(a1-3)]GlcNAc
Outline: as §1

[10] = target: Fuc(a1-2)Gal(b1-4)[Fuc(a1-3)]GlcNAc(b1-3)Gal(b1-4)[Fuc(a1-3)]GlcNAc
Outline: as §1

[11] = target: Fuc(a1-2)Gal(b1-4)[Fuc(a1-3)]GlcNAc(b1-3)Gal(b1-4)[Fuc(a1-3)]GlcNAc(b1-3)Gal(b1-4)[Fuc(a1-3)]GlcNAc
Outline: as §1

Fuc(a1-2)Gal6S(b1-4)Glc = target: Fuc(a1-2)Gal6S(b1-4)Glc
Outline: as §1

[12] = target: Fuc(a1-2)Gal6S(b1-4)Glc6S
Outline: as §1

[13] = target: Fuc(a1-2)Gal6S(b1-4)GlcNAc
Outline: as §1

Fuc(a1-2)[Gal(a1-3)]Gal = target: Fuc(a1-2)[Gal(a1-3)]Gal
Outline: as §1

[14] = target: Fuc(a1-2)[Gal(a1-3)]Gal(b1-3)GlcNAc
Outline: as §1

[15] = target: Fuc(a1-2)[Gal(a1-3)]Gal(b1-4)Glc
Outline: as §1

[16] = target: Fuc(a1-2)[Gal(a1-3)]Gal(b1-4)GlcNAc
Outline: as §1

[17] = target: Fuc(a1-2)[Gal(a1-3)]Gal(b1-4)[Fuc(a1-3)]GlcNAc
Outline: as §1

[18] = target: Fuc(a1-2)[Gal(a1-4)]Gal(b1-4)GlcNAc
Outline: as §1

[19] = target: Fuc(a1-2)[GalNAc(a1-3)]Gal
Outline: as §1

[20] = target: Fuc(a1-2)[GalNAc(a1-3)]Gal(b1-3)GlcNAc
Outline: as §1

[21] = target: Fuc(a1-2)[GalNAc(a1-3)]Gal(b1-4)Glc
Outline: as §1

[22] = target: Fuc(a1-2)[GalNAc(a1-3)]Gal(b1-4)GlcNAc
Outline: as §1

[23] = target: Fuc(a1-2)[GalNAc(a1-3)]Gal(b1-4)[Fuc(a1-3)]GlcNAc
Outline: as §1

[24] = target: Fuc(a1-2)[GalNAc(a1-4)]Gal(b1-4)GlcNAc
Outline: as §1

[25] = target: Fuc(a1-2)[GalNAc(b1-3)]Gal
Outline: as §1

Fuc(a1-3)GlcNAc = target: Fuc(a1-3)GlcNAc
Outline: as §1

[26] = target: Fuc(a1-3)[Gal(b1-4)]Glc6S
Outline: as §1

[27] = target: Fuc(a1-3)[Gal(b1-4)]GlcNAc
Outline: as §1

[28] = target: Fuc(a1-3)[Gal(b1-4)]GlcNAc(b1-2)Man(a1-3)[Fuc(a1-3)[Gal(b1-4)]GlcNAc(b1-2)Man(a1-6)]Man(b1-4)GlcNAc(b1-4)GlcNAc
Outline: as §1

[29] = target: Fuc(a1-3)[Gal(b1-4)]GlcNAc(b1-2)Man(a1-6)[Gal(b1-4)GlcNAc(b1-2)Man(a1-3)]Man(b1-4)GlcNAc(b1-4)GlcNAc
Outline: as §1

[30] = target: Fuc(a1-3)[Gal(b1-4)]GlcNAc(b1-3)Gal(b1-3)[Fuc(a1-4)]GlcNAc
Outline: as §1

[31] = target: Fuc(a1-3)[Gal(b1-4)]GlcNAc(b1-4)Gal(b1-4)[Fuc(a1-3)]GlcNAc
Outline: as §1

[32] = target: Fuc(a1-3)[Gal(b1-4)]GlcNAc(b1-4)Gal(b1-4)[Fuc(a1-3)]GlcNAc(b1-4)Gal(b1-4)[Fuc(a1-3)]GlcNAc
Outline: as §1

[33] = target: Fuc(a1-3)[Gal(b1-4)]GlcNAc6S
Outline: as §1

[34] = target: Fuc(a1-3)[Gal3S(b1-4)]Glc6S
Outline: as §1

[35] = target: Fuc(a1-3)[Gal3S(b1-4)]GlcNAc
Outline: as §1

[36] = target: Fuc(a1-3)[Gal3S(b1-4)]GlcNAc6S
Outline: as §1

[37] = target: Fuc(a1-3)[GalNAc(b1-4)]GlcNAc
Outline: as §1

Fuc(a1-4)GlcNAc = target: Fuc(a1-4)GlcNAc
Outline: as §1

Fuc(b1-3)GlcNAc = target: Fuc(b1-3)GlcNAc
Outline: as §1

Gal(a1-2)Gal = target: Gal(a1-2)Gal
Outline: as §1

Gal(a1-3)Gal = target: Gal(a1-3)Gal
Outline: as §1

Gal(a1-3)Gal(b1-3)GlcNAc = target: Gal(a1-3)Gal(b1-3)GlcNAc
Outline: as §1

Gal(a1-3)Gal(b1-4)Glc = target: Gal(a1-3)Gal(b1-4)Glc
Outline: as §1

Gal(a1-3)Gal(b1-4)GlcNAc = target: Gal(a1-3)Gal(b1-4)GlcNAc
Outline: as §1

[38] = target: Gal(a1-3)Gal(b1-4)[Fuc(a1-3)]GlcNAc
Outline: as §1

Gal(a1-3)GalNAc = target: Gal(a1-3)GalNAc
Outline: as §1

[39] = target: Gal(a1-3)[Gal(a1-4)]Gal(b1-4)GlcNAc
Outline: as §1

Gal(a1-4)Gal(b1-4)Glc = target: Gal(a1-4)Gal(b1-4)Glc
Outline: as §1

Gal(a1-4)Gal(b1-4)GlcNAc = target: Gal(a1-4)Gal(b1-4)GlcNAc
Outline: as §1

Gal(a1-4)GlcNAc = target: Gal(a1-4)GlcNAc
Outline: as §1

Gal(a1-6)Glc = target: Gal(a1-6)Glc
Outline: as §1

B1: Surfactant Protein D (Human); Neck + Carbohydrate Recognition Domain (NCRD) (Homo sapiens) (protein)
chain: MLLFLLSALVLLTQPLGYLEAEMKTYSHRTMPSACTLVMCSSVESGLPGRDRDGREGPRGEKGDPGLPGAAGQAGMPGQAGPVGPKGDNGSVGEPGPKGDTGPSGPPGPPGVPGPAGREGALGKQGNIGPQGKPGPKGEAGPKGEVGAPGMQGSAGARGLAGPKGERGVPGERGVPGNTGAAGSAGAMGPQGSPGARGPPGLKGDKGIPGDKGAKGESGLPDVASLRQQVEALQGQVQHLQAAFSQYKKVELFPNGQSVGEKIFKTAQFVKPFTEAQLLCTQAGGQLASPRSAAENAALQQLVVAKNEAAFLSMTDSKTEGKFTYPTGESLVYSNWAPGEPNDNGGSEDCVEIFTNGKWNDRACGEKRLVVCEF
glycan array binding signal (z-score) (Fuc(a1-2)Gal): -0.136 | glycan array binding signal (z-score) (Fuc(a1-2)Gal(b1-3)GalNAc): -0.104 | glycan array binding signal (z-score) [1]: -0.126 | glycan array binding signal (z-score) [2]: -0.138 | glycan array binding signal (z-score) [3]: -0.128 | glycan array binding signal (z-score) (Fuc(a1-2)Gal(b1-3)GlcNAc): -0.143 | glycan array binding signal (z-score) [4]: -0.138 | glycan array binding signal (z-score) [5]: -0.155 | glycan array binding signal (z-score) (Fuc(a1-2)Gal(b1-4)Glc): -0.138 | glycan array binding signal (z-score) (Fuc(a1-2)Gal(b1-4)Glc6S): -0.151 | glycan array binding signal (z-score) (Fuc(a1-2)Gal(b1-4)GlcNAc): -0.147 | glycan array binding signal (z-score) [6]: -0.137 | glycan array binding signal (z-score) [7]: -0.129 | glycan array binding signal (z-score) [8]: -0.139 | glycan array binding signal (z-score) [9]: -0.149 | glycan array binding signal (z-score) [10]: -0.144 | glycan array binding signal (z-score) [11]: -0.13 | glycan array binding signal (z-score) (Fuc(a1-2)Gal6S(b1-4)Glc): -0.155 | glycan array binding signal (z-score) [12]: -0.125 | glycan array binding signal (z-score) [13]: -0.13 | glycan array binding signal (z-score) (Fuc(a1-2)[Gal(a1-3)]Gal): -0.136 | glycan array binding signal (z-score) [14]: -0.124 | glycan array binding signal (z-score) [15]: -0.155 | glycan array binding signal (z-score) [16]: -0.128 | glycan array binding signal (z-score) [17]: -0.1 | glycan array binding signal (z-score) [18]: -0.137 | glycan array binding signal (z-score) [19]: -0.135 | glycan array binding signal (z-score) [20]: -0.155 | glycan array binding signal (z-score) [21]: -0.132 | glycan array binding signal (z-score) [22]: -0.091 | glycan array binding signal (z-score) [23]: -0.147 | glycan array binding signal (z-score) [24]: -0.128 | glycan array binding signal (z-score) [25]: -0.099 | glycan array binding signal (z-score) (Fuc(a1-3)GlcNAc): -0.098 | glycan array binding signal (z-score) [26]: -0.143 | glycan array binding signal (z-score) [27]: -0.138 | glycan array binding signal (z-score) [28]: -0.127 | glycan array binding signal (z-score) [29]: -0.133 | glycan array binding signal (z-score) [30]: -0.147 | glycan array binding signal (z-score) [31]: -0.114 | glycan array binding signal (z-score) [32]: -0.096 | glycan array binding signal (z-score) [33]: -0.142 | glycan array binding signal (z-score) [34]: -0.117 | glycan array binding signal (z-score) [35]: -0.097 | glycan array binding signal (z-score) [36]: -0.146 | glycan array binding signal (z-score) [37]: -0.128 | glycan array binding signal (z-score) (Fuc(a1-4)GlcNAc): -0.136 | glycan array binding signal (z-score) (Fuc(b1-3)GlcNAc): -0.144 | glycan array binding signal (z-score) (Gal(a1-2)Gal): -0.109 | glycan array binding signal (z-score) (Gal(a1-3)Gal): -0.145 | glycan array binding signal (z-score) (Gal(a1-3)Gal(b1-3)GlcNAc): -0.169 | glycan array binding signal (z-score) (Gal(a1-3)Gal(b1-4)Glc): -0.123 | glycan array binding signal (z-score) (Gal(a1-3)Gal(b1-4)GlcNAc): -0.142 | glycan array binding signal (z-score) [38]: -0.123 | glycan array binding signal (z-score) (Gal(a1-3)GalNAc): -0.111 | glycan array binding signal (z-score) [39]: -0.155 | glycan array binding signal (z-score) (Gal(a1-4)Gal(b1-4)Glc): -0.147 | glycan array binding signal (z-score) (Gal(a1-4)Gal(b1-4)GlcNAc): -0.144 | glycan array binding signal (z-score) (Gal(a1-4)GlcNAc): -0.096 | glycan array binding signal (z-score) (Gal(a1-6)Glc): -0.133
